B1: FARP2, O94887 (protein)
chain: MGEIEGTYRVLQTAGMRLGAQTPVGVSTLEPGQTLLPRMQEKHLHLRVKLLDNTMEIFDIEPKCDGQVLLTQVWKRLNLVECDYFGMEFQNTQSYWIWLEPMKPIIRQIRRPKNVVLRLAVKFFPPDPGQLQEEYTRYLFALQLKRDLLEERLTCADTTAALLTSHLLQSEIGDYDETLDREHLKVNEYLPGQQHCLEKILEFHQKHVGQTPAESDFQVLEIARKLEMYGIRFHMASDREGTKIQLAVSHMGVLVFQGTTKINTFNWSKVRKLSFKRKRFLIKLHPEVHGPYQDTLEFLLGSRDECKNFWKICVEYHTFFRLLDQPKPKAKAVFFSRGSSFRYSGRTQKQLVDYFKDSGMKRIPYERRHSKTHTSVRALTADLPKQSISFPEGLRTPASPSSANAFYSLSPSTLVPSGLPEFKDSSSSLTDPQVSYVKSPAAERRSGAVAGGPDTPSAQPLGPPALQPGPGLSTKSPQPSPSSRKSPLSLSPAFQVPLGPAEQGSSPLLSPVLSDAGGAGMDCEEPRHKRVPADEAYFIVKEILATERTYLKDLEVITVWFRSAVVKEDAMPATLMTLLFSNIDPIYEFHRGFLREVEQRLALWEGPSKAHTKGSHQRIGDILLRNMRQLKEFTSYFQRHDEVLTELEKATKRCKKLEAVYKEFELQKVCYLPLNTFLLKPIQRLLHYRLLLRRLCGHYSPGHHDYADCHDALKAITEVTTTLQHILIRLENLQKLTELQRDLVGIENLIAPGREFIREGCLHKLTKKGLQQRMFFLFSDMLLYTSKGVAGTSHFRIRGLLPLQGMLVEESDNEWSVPHCFTIYAAQKTIVVAASTRLEKEKWMLDLNSAIQAAKSGGDTAPALPGRTVCTRPPRSPNEVSLEQESEDDARGVRSSLEGHGQHRANTTMHVCWYRNTSVSRADHSAAVENQLSGYLLRKFKNSHGWQKLWVVFTNFCLFFYKTHQDDYPLASLPLLGYSVSIPREADGIHKDYVFKLQFKSHVYFFRAESKYTFERWMEVIQGASSSAGRAPSIVQDGPQPSSGLEGMVRGKEE
B2: ARHGAP25, P42331 (protein)
chain: MSLKLPRNWDFNLKVEAAKIARSRSVMTGEQMAAFHPSSTPNPLERPIKMGWLKKQRSIVKNWQQRYFVLRAQQLYYYKDEEDTKPQGCMYLPGCTIKEIATNPEEAGKFVFEIIPASWDQNRMGQDSYVLMASSQAEMEEWVKFLRRVAGTPCGVFGQRLDETVAYEQKFGPHLVPILVEKCAEFILEHGRNEEGIFRLPGQDNLVKQLRDAFDAGERPSFDRDTDVHTVASLLKLYLRDLPEPVVPWSQYEGFLLCGQLTNADEAKAQQELMKQLSILPRDNYSLLSYICRFLHEIQLNCAVNKMSVDNLATVIGVNLIRSKVEDPAVIMRGTPQIQRVMTMMIRDHEVLFPKSKDIPLSPPAQKNDPKKAPVARSSVGWDATEDLRISRTDSFSSMTSDSDTTSPTGQQPSDAFPEDSSKVPREKPGDWKMQSRKRTQTLPNRKCFLTSAFQGANSSKMEIFKNEFWSPSSEAKAGEGHRRTMSQDLRQLSDSQRTSTYDNVPSLPGSPGEEASALSSQACDSKGDTLASPNSETGPGKKNSGEEEIDSLQRMVQELRKEIETQKQMYEEQIKNLEKENYDVWAKVVRLNEELEKEKKKSAALEISLRNMERSREDVEKRNKALEEEVKEFVKSMKEPKTEA
B3: HUS1, O60921 (protein)
chain: MKFRAKIVDGACLNHFTRISNMIAKLAKTCTLRISPDKLNFILCDKLANGGVSMWCELEQENFFNEFQMEGVSAENNEIYLELTSENLSRALKTAQNARALKIKLTNKHFPCLTVSVELLSMSSSSRIVTHDIPIKVIPRKLWKDLQEPVVPDPDVSIYLPVLKTMKSVVEKMKNISNHLVIEANLDGELNLKIETELVCVTTHFKDLGNPPLASESTHEDRNVEHMAEVHIDIRKLLQFLAGQQVNPTKALCNIVNNKMVHFDLLHEDVSLQYFIPALS
B4: PADI3, Q9ULW8 (protein)
chain: MSLQRIVRVSLEHPTSAVCVAGVETLVDIYGSVPEGTEMFEVYGTPGVDIYISPNMERGRERADTRRWRFDATLEIIVVMNSPSNDLNDSHVQISYHSSHEPLPLAYAVLYLTCVDISLDCDLNCEGRQDRNFVDKRQWVWGPSGYGGILLVNCDRDDPSCDVQDNCDQHVHCLQDLEDMSVMVLRTQGPAALFDDHKLVLHTSSYDAKRAQVFHICGPEDVCEAYRHVLGQDKVSYEVPRLHGDEERFFVEGLSFPDAGFTGLISFHVTLLDDSNEDFSASPIFTDTVVFRVAPWIMTPSTLPPLEVYVCRVRNNTCFVDAVAELARKAGCKLTICPQAENRNDRWIQDEMELGYVQAPHKTLPVVFDSPRNGELQDFPYKRILGPDFGYVTREPRDRSVSGLDSFGNLEVSPPVVANGKEYPLGRILIGGNLPGSSGRRVTQVVRDFLHAQKVQPPVELFVDWLAVGHVDEFLSFVPAPDGKGFRMLLASPGACFKLFQEKQKCGHGRALLFQGVVDDEQVKTISINQVLSNKDLINYNKFVQSCIDWNREVLKRELGLAECDIIDIPQLFKTERKKATAFFPDLVNMLVLGKHLGIPKPFGPIINGCCCLEEKVRSLLEPLGLHCTFIDDFTPYHMLHGEVHCGTNVCRKPFSFKWWNMVP

The list shows a part of the results. Interaction screen of human proteins with wild-type SARS-CoV-2 proteins by split-DHFR complementation in yeast, 1 µg/mL methotrexate. Value = fitness of the pair (three or more lineages) minus that of the viral protein without a human partner, on a scale set by negative (0) and fused positive (1) controls, mean of up to three cultures; higher = more likely to interact. Active = false discovery rate below 0.05 (one-sided t-test) in at least one culture. Nearly all pairs are not hits, and differences among them are mostly noise (correlation between cultures about 0.3); most hits were seen in one culture only. Human sequences are the Swiss-Prot entries looked up by gene name; the clone may be another isoform. NSP2 values were corrected by the authors for a growth advantage. Listed are human proteins with a hit and a random twelfth of the others.

The target in the first test is SARS-CoV-2 M. Description: yeast fitness gain over the viral ORF with no human partner (scaled fitness); higher = more likely to interact. The method, then:
(§1)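 Split mouse DHFR complementation in pooled diploid yeast: human ORFeome clones carry one fragment and viral ORFs the other; barcoded lineages compete in 1 µg/mL methotrexate and fitness is read by barcode sequencing in up to three cultures.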
For the molecule B1, the yeast fitness gain was inactive: 0.0194.
Take B2: the yeast fitness gain is inactive: 0.0196.
B3: the yeast fitness gain was inactive: -0.374.
Same read-out and setting: with B4 the figure was inactive: -0.0473.

A further test addresses SARS-CoV-2 NSP10. The description is as above. As to the method: as §1
For B1, the yeast fitness gain is inactive: -0.122.
On the same count and under the same terms, with B2 the figure was inactive: 0.0653.
Same read-out and setting: with B3 the figure was inactive: 0.0198.
Still for that read-out and setting: next, B4: inactive: -0.0651.

For another test, the target named is SARS-CoV-2 NSP12. The description is as above. The method, then:
as §1
Consider B1, for which the yeast fitness gain was inactive: -0.0584.
Same read-out and setting: next, B2: inactive: 0.0311; B3: inactive: 0.0404.
Still for that read-out and setting: next, B4: inactive: 0.0148.

The next test has as its target SARS-CoV-2 NSP13. Described as above. The method, then: as §1
Consider B1, for which the yeast fitness gain is inactive: -0.243.
The same measure, in the same setting: with B2 the figure was inactive: 0.0652; with B3, inactive: -0.0345; with B4, inactive: -0.0152.

The next test deals with SARS-CoV-2 NSP2. The description is as above. As to the method:
as §1
For the molecule B1, the yeast fitness gain is inactive: 0.0312.
Regarding B2, the yeast fitness gain is inactive: -0.136.
Same read-out and setting: next, B3: inactive: -0.0396; B4: inactive: -0.0861.

The target of the next test is SARS-CoV-2 NSP4. The test is described as above. The method, then:
as §1
With B1, the yeast fitness gain is inactive: -0.2.
Still for that read-out and setting: next, B4: inactive: -0.237.

A further test deals with SARS-CoV-2 NSP5. The description is as above. As to the method:
as §1
For the molecule B1, the yeast fitness gain was inactive: -0.00429.
The same measure, in the same setting: with B2 the figure was inactive: -0.0653; with B3, inactive: -0.0673; with B4, inactive: 0.125.

In another test the target is SARS-CoV-2 ORF10. The test is described as above. As to the method:
as §1
With B1, the yeast fitness gain is inactive: 0.0178.
Consider B2, for which the yeast fitness gain is inactive: 0.0349.
Still for that read-out and setting: with B3 the figure was inactive: -0.0798.
Still for that read-out and setting: with B4 the figure was inactive: 0.0476.

The target in a further test is SARS-CoV-2 ORF3A. The description is as above. As to the method:
as §1
Consider B1, for which the yeast fitness gain was inactive: -0.309.
For B2, the yeast fitness gain was inactive: 0.0709.
On the same count and under the same terms, with B3 the figure was inactive: -0.0135.

A further test addresses SARS-CoV-2 ORF3B. The test is described as above. The method, then:
as §1
B1: the yeast fitness gain is inactive: 0.023.
As for B2, the yeast fitness gain was inactive: -0.000317.
B4: the yeast fitness gain is inactive: -0.036.

The target in a further test is SARS-CoV-2 ORF6. The description is as above. As to the method: as §1
Take B1: the yeast fitness gain is inactive: -0.553.
Still for that read-out and setting: with B2 the figure was inactive: 0.00664; with B3, inactive: -0.00717.
Turning to B4, the yeast fitness gain was inactive: -0.0489.

In the next test the target is SARS-CoV-2 ORF7B. The description is as above. The method, then:
as §1
Turning to B1, the yeast fitness gain was inactive: 0.0855.
On the same count and under the same terms, next, B2: inactive: -0.0388; B3: inactive: -0.000463; B4: inactive: 0.0513.

A further test addresses SARS-CoV-2 ORF8. Described as above. The method, then: as §1
For the molecule B1, the yeast fitness gain is inactive: -0.0345.
On the same count and under the same terms, with B2 the figure was inactive: -0.248.
B3: the yeast fitness gain is inactive: -0.0201.
Still for that read-out and setting: with B4 the figure was inactive: 0.0362.

A further test deals with SARS-CoV-2 ORF9B. Described as above. As to the method:
as §1
Consider B1, for which the yeast fitness gain was inactive: -0.0597.
Still for that read-out and setting: next, B2: inactive: 0.0152.
On the same count and under the same terms, next, B3: inactive: -0.0403; B4: inactive: -0.0535.

In the next test the target is SARS-CoV-2 S. Described as above. The method, then: as §1
As to B1, the yeast fitness gain was inactive: 0.085.
The same measure, in the same setting: with B2 the figure was inactive: 0.0259; with B3, inactive: -0.0087.
Same read-out and setting: with B4 the figure was inactive: -0.0845.

A further test has as its target SARS-CoV-2 N. Described as above. As to the method: as §1
B2: the yeast fitness gain was inactive: -0.0758.

The next test addresses SARS-CoV-2 NSP1. The test is described as above. The method, then: as §1
For the molecule B2, the yeast fitness gain is inactive: -0.0659.
For B3, the yeast fitness gain was inactive: 0.00919.
On the same count and under the same terms, next, B4: inactive: 0.0316.

A further test has as its target SARS-CoV-2 NSP14. Described as above. As to the method:
as §1
Regarding B2, the yeast fitness gain is inactive: 0.0998.

The target in the next test is SARS-CoV-2 NSP16. The description is as above. As to the method:
as §1
Regarding B2, the yeast fitness gain is inactive: 0.0824.
Same read-out and setting: with B4 the figure was inactive: -0.0377.

The target of a further test is SARS-CoV-2 NSP6. The test is described as above. As to the method:
as §1
As for B2, the yeast fitness gain was inactive: 0.0919.
Same read-out and setting: next, B3: inactive: -0.00739; B4: inactive: -0.0678.

A further test concerns the target SARS-CoV-2 NSP7. The test is described as above. As to the method: as §1
Consider B2, for which the yeast fitness gain was inactive: -0.0331.
On to B3, for which the yeast fitness gain is inactive: 0.00599.
Same read-out and setting: next, B4: inactive: -0.0595.

A further test has as its target SARS-CoV-2 NSP8. The test is described as above. The method, then:
as §1
In the case of B2, the yeast fitness gain is inactive: -0.0196.
The same measure, in the same setting: with B3 the figure was inactive: -0.169; with B4, inactive: 0.00882.

The target of the next test is SARS-CoV-2 NSP9. Described as above. As to the method: as §1
Regarding B2, the yeast fitness gain is inactive: -0.0383.
On the same count and under the same terms, next, B4: inactive: -0.0821.

The target in another test is SARS-CoV-2 ORF7A. The description is as above. The method, then:
as §1
For the molecule B2, the yeast fitness gain was inactive: 0.0319.
Consider B3, for which the yeast fitness gain was inactive: 0.0874.
Same read-out and setting: next, B4: inactive: -0.109.

In another test the target is SARS-CoV-2 ORF9Bwu (the 73-codon ORF). The test is described as above. The method, then: as §1
Consider B2, for which the yeast fitness gain is inactive: -0.208.
For B3, the yeast fitness gain is inactive: -0.00544.
The same measure, in the same setting: with B4 the figure was inactive: 0.0383.

Another test deals with SARS-CoV-2 NSP15. The description is as above. As to the method:
as §1
Turning to B4, the yeast fitness gain was inactive: 0.0146.

The values are drawn from the supplement of paper PMC11741623.
